Screen size: about 220,000 compounds; about 16,000 (7.3%) were called active. This list was built around the results that the source calls inconclusive (neither active nor inactive); the mix of calls is not that of the screen. Calls follow the shape of the dose curve; as a rule, active = well fitted inhibition curve with a large enough effect (not every such curve was filed as active); inconclusive = small, poorly fitted or top-dose-only effect, or another doubt; inactive = no such curve, though single readings can be large or run the other way. Potencies of inconclusive entries are left out as doubtful fits.
These compounds were tested against Aldehyde dehydrogenase 1A1 (Homo sapiens) (UniProt P00352) (assay: qHTS Assay for Inhibitors of Aldehyde Dehydrogenase 1 (ALDH1A1)). Details: Purified ALDH1A1, NADH fluorescence, propionaldehyde substrate; series mostly up to 75.3 µM; activity, negative = inhibition: at the top concentration.
Chain of UniProt P00352 (P00352 whole entry, looked up): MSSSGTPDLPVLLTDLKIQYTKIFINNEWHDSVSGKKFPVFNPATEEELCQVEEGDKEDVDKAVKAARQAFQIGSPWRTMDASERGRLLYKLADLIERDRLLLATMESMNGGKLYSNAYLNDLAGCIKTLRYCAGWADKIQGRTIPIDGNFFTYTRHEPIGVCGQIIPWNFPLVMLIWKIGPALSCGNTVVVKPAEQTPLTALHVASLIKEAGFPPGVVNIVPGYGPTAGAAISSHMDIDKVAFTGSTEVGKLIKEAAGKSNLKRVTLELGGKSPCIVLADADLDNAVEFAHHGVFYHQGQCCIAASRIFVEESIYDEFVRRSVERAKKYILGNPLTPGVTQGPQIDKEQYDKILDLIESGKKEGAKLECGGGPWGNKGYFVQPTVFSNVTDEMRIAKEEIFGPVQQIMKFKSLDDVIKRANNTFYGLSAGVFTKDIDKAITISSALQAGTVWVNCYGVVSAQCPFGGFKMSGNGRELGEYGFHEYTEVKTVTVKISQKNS
With `C=CCSc1nc2sc(-c3ccccc3)cc2c(=O)n1N` the Potency was inconclusive [inhibitor, single point].
`CCOC(=O)c1cnc(-n2nc(C)cc2C)nc1NC(C)c1ccccc1` (stereo not given) was tested, and the Potency was inconclusive [inhibitor, single point].
`N#CC1=C2C=CC=CN2CC1=O` was tested, and the Potency was inconclusive [inhibitor, single point].
For `O=C(c1cc(=O)[nH]c2ccccc12)N1CCN(c2ccc([N+](=O)[O-])cc2)CC1`, the Potency was active: 2.99 µM.
`CCC(Sc1nc(C)cc(=O)[nH]1)C(=O)Nc1sc2c(c1C#N)CCCC2` (stereo not given) was tested, and the Potency was inconclusive [inhibitor, single point].
For `COc1ccc(/C=C(\C#N)C(=O)NCCc2ccccc2)cc1OCc1ccccc1`, the Potency was inconclusive [inhibitor, partial curve].
In the case of `CN1CCN(S(=O)(=O)c2ccc(N3CCN(C(c4ccccc4)c4ccccc4)CC3)nc2)CC1`, the Potency is reported as inconclusive [inhibitor, single point].
`C/C(=N\NC(=O)C1COc2ccccc2O1)c1ccc(Cl)s1` (stereo not given) was tested, and the “activity, negative = inhibition” value was inactive: 3.54%.
With `NC(=O)c1ccsc1NC(=O)COc1ccccc1` the Potency was inconclusive [inhibitor, single point].
`Cc1cc(=O)[nH]c2n[nH]c(-c3ccccc3)c12` was tested, and the Potency was inconclusive [inhibitor, single point].
With `O=c1c2ccccc2c(C=Nc2cccc(S(=O)(=O)NCc3ccco3)c2)c(O)n1-c1ccc(Cl)cn1` the Potency was inconclusive [inhibitor, partial curve].
`O=C(c1cccc2ccccc12)C1CCCN(C(=O)CCN2CCCO2)C1` (stereo not given) was tested, and the Potency was inconclusive [inhibitor, single point].
With `COc1ccc2[nH]c(=O)c(CN(Cc3ccccc3OC)Cc3nnnn3CC3CCCO3)cc2c1` (stereo not given) the Potency was inconclusive [inhibitor, partial curve].
In the case of `COc1ccc(NC(=S)N(Cc2ccc(N(C)C)cc2)Cc2ccco2)cc1`, the Potency is reported as active: 11.2 µM.
With `O=C(c1ccc2c(=O)n3c(nc2c1)CCCCC3)N1CCN(C(c2ccccc2)c2ccccc2)CC1` the Potency was inconclusive [inhibitor, single point].
In the case of `CCCN(S(=O)(=O)c1ccc(OCC)cc1)S(=O)(=O)c1cccs1`, the Potency is reported as inconclusive [inhibitor, partial curve].
With `CC(C)CC1(C(=O)O)C=CCN1C(=O)c1ccccc1` (stereo not given) the “activity, negative = inhibition” value was inactive: -0.622%.
`COc1ccc(C(=O)NNC(=O)C(Cc2ccc(O)cc2)NC(=O)c2ccccc2NC(=O)c2ccc(OC)cc2)cc1` (stereo not given) was tested, and the Potency was inconclusive [inhibitor, partial curve].
For `Fc1cccc(CN2CCN(c3ncccn3)CC2)c1`, the Potency was active: 12.6 µM.
For `CC1(C)Oc2ccc(NC(=O)C3COc4ccccc4O3)cc2O1` (stereo not given), the Potency was active: 0.0355 µM.
For `CCC1(CC)Cc2ccccc2C(=C(C#N)C#N)N1`, the “activity, negative = inhibition” value was inactive: -11.9%.
`CCOC(=O)N1CCN(C(=O)c2cnn3c(C)c(Cc4ccc(C)cc4)c(C)nc23)CC1` was tested, and the Potency was active: 25.1 µM.
With `COCCNCc1ccccc1` the “activity, negative = inhibition” value was inactive: 14.4%.
For `C/C(=N\NC(=O)c1cccc(N/N=C(\C)c2ccncc2)c1)c1ccncc1`, the Potency was inconclusive [inhibitor, single point].
`CCC(C)(c1ccc(C=O)s1)c1ccc(C=O)s1` was tested, and the Potency was inconclusive [inhibitor, single point].
`Cc1ccsc1C1Nc2ccccc2-c2nc3ccccc3n21` (stereo not given) was tested, and the Potency was inconclusive [inhibitor, partial curve].
In the case of `CC(NCC(O)c1ccc([N+](=O)[O-])cc1)C12CC3CC(CC(C3)C1)C2` (stereo not given), the Potency is reported as inconclusive [inhibitor, single point].
With `Cc1c(OC(=O)c2ccc([N+](=O)[O-])cc2)c2c(c[n+]1C)COC(C)(C)OC2` the Potency was inconclusive [inhibitor, single point].
`O=S(=O)(Nc1ccc(Cl)cc1)c1ccc(N2CCOCC2)c(NC(=S)NC2CC2)c1` was tested, and the Potency was active: 8.91 µM.
In the case of `CCn1c(CNc2ccc(F)cc2)nnc1SCC(=O)Nc1ccc(OC)cc1OC`, the Potency is reported as active: 14.1 µM.
In the case of `C=CCNC(=S)NNC(=O)c1ccccc1OCC`, the Potency is reported as inconclusive [inhibitor, single point].
With `CCCNS(=O)(=O)c1ccc(CCC(=O)N2CCCC2)cc1` the Potency was inconclusive [inhibitor, partial curve].
With `Cc1ccc(NC(=O)CCl)c(C)c1` the Potency was active: 0.282 µM.
With `C=C(CO)C1Cc2c(ccc3c2OC2COc4cc(OC)c(OC)cc4C2C3=O)O1` (stereo not given) the Potency was active: 22.4 µM.
In the case of `C=CCn1c(SCC(=O)c2ccc(Br)cc2)nnc1C(CC(C)C)NC(=O)c1cccs1` (stereo not given), the Potency is reported as inconclusive [inhibitor, single point].
`CC1CCCC(C)N1/N=C/c1cc(Br)c(O)c(Br)c1` (stereo not given) was tested, and the Potency was inconclusive [inhibitor, single point].
For `CCN(CC(=O)Nc1ccc(C(C)=O)cc1)CC(=O)Nc1ccccc1C(F)(F)F`, the Potency was active: 10 µM.
In the case of `O=[N+]([O-])c1ccccc1S(=O)(=O)N1CCN(Cc2cc3c(cc2O)OCO3)CC1`, the Potency is reported as active: 1.89 µM.
With `N=c1c2c(-c3ccccc3)c(-c3ccccc3)oc2ncn1Cc1ccco1` the Potency was inconclusive [inhibitor, partial curve].
With `CN(CCCN1CCOCC1)Cc1cn(C)nc1-c1ccccc1F` the Potency was inconclusive [inhibitor, single point].
For `COCCNC(=O)c1ccccc1NC(=O)c1ccc(Cl)c(S(=O)(=O)Nc2ccc(C)cc2C)c1`, the Potency was inconclusive [inhibitor, single point].
In the case of `CN(C)S(=O)(=O)c1cc(NC(=O)CN2C(=O)NC3(CCCc4ccccc43)C2=O)ccc1Cl` (stereo not given), the Potency is reported as active: 12.6 µM.
In the case of `COCC(=O)n1nc(NCc2ccc(OC)cc2)nc1NCc1ccc(OC)cc1`, the Potency is reported as inconclusive [inhibitor, single point].
In the case of `COC(=O)c1ccc(C(=O)Nc2ccc(N)cc2N)cc1`, the “activity, negative = inhibition” value is reported as inactive: -5.8%.
With `O=C(Nc1cc(S(=O)(=O)Nc2ccc(Cl)cc2)ccc1N1CCCCC1)c1ccc(F)cc1Cl` the Potency was active: 31.6 µM.

— PubChem BioAssay AID1030 (National Center for Advancing Translational Sciences (NCATS), 2008)
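For activity, negative = inhibition in this document: plate controls were no enzyme wells and a reference inhibitor.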
Potency is read from the fitted curve at half-maximal effect; tags tell the direction and shape of the fitted curve.
